No constants are given. Whether binding was seen depends on the method and setting. Binding seen in cells or lysates may run through a third protein. Some binding calls cover weakened binding; strength is not graded here. Tags and fused reporters may be left off the sequences shown.

Experiment in all cases: co-IP; both proteins co-expressed in HEK293T cells; lysate in 1% Triton X-100, 50 mM Tris-HCl pH 7.5, 150 mM NaCl; Dynabeads magnetic beads; Western blotting; which partner was precipitated is not told
(In western blotting, separated proteins are transferred to a membrane and probed.)

Test [1] has as its target T1, constitutively active (CA; GTP-bound) form of RAB2B, Q65L (UniProt P59279).
T1 sequence: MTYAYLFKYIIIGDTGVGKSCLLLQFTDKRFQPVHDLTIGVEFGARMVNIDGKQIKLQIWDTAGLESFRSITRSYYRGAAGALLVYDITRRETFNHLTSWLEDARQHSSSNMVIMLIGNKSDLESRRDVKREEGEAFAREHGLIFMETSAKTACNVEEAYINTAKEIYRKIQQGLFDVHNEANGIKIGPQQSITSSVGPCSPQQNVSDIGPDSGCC

For another test, the target named is PA-tagged RAB2A (UniProt P53994).
The next test deals with PA-tagged RAB2B (UniProt P59279).
Test [2] concerns the target T2, constitutively active (CA; GTP-bound) form of RAB2A, Q65L (UniProt P53994).
T2 sequence: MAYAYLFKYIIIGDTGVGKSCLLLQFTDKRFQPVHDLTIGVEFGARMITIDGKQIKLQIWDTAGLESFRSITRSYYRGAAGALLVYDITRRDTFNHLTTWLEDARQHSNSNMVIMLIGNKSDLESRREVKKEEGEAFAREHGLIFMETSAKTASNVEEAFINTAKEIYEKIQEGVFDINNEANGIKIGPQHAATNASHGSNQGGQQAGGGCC

In test [3] the target is T3, constitutively negative (CN; GDP-bound) form of RAB2A, S20N (UniProt P53994).
T3 sequence: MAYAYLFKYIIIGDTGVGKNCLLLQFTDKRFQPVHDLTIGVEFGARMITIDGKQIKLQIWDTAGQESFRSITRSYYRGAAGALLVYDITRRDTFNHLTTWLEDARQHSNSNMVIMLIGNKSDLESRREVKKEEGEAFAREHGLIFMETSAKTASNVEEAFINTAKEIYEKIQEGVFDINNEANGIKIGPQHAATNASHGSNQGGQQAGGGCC

For test [4], the target named is T4, constitutively negative (CN; GDP-bound) form of RAB2B, S20N (UniProt P59279).
T4 sequence: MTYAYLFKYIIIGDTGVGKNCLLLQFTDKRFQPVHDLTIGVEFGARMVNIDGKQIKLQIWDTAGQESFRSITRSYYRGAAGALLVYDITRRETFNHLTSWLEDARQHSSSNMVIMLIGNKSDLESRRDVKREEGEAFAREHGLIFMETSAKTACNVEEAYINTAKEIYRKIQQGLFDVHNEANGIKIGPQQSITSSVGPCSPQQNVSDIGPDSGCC

B1: FLAG-tagged GARIN5A (protein, UniProt A1L3C1 1-212)
chain: MKGGRDLKAARGGADRPLAPAYAPCRPGRLQRHLLSGEFDQLRDFPIFESNFVQVTRFGEVANKVTMGVAASSPALELPDLLLLAGPDKENGHLQLLGLFPLQFVQLFVHDESRQQLKVKFRTGRAFYLQLRSPPETRDCEFGRWVRLLYRLRFHSPTCAVPFTHEDTAPEEEEEEEEEEEEEEVKEGQLQPPEFQATEARLDPQVSELWGL
For B1, the binding entry (in test [1]; with PA-tagged RAB2A; in the test with PA-tagged RAB2B; in test [2]; in test [3]) was “binds” in each case.

B2: FLAG-tagged GARIN4 (protein, UniProt B7XG49 1-585)
chain: MDVKEESLLPYYTAQSGAEVGMFNGLFDTATGKLQQQLHKGEYDIFKYAPIFESDFIQITRYGEVIDVHNRVRMVTVGIACTSPILPLPDVMLLARPAPFDELLGHGQSTNSTKGKKRKAGKTLELTRLLPLKFVRISVHRRDEQQLRLKFATGRSCYLQLCPPPESKDDLFSYWEKLIDLLRPPVDSNTSTYAIPAGDMMSTPFLDEELKIPKKKGKRKSGHRKKRDLYKVSVKSLPATTDVSAISSSAFSGGEETHDSHISTIVSRIPTPKVSSKVLARESASEAIVCDLVDSLSLAANMPEGLGQINKATVEEAALGARGSKSHLTIASTGKMSPKSMKIALAGMASKSLEYIPSSPASLSRKEIMTVTNSRIETTGKSVGETANDPVPVVLALTLPSESHSNEETGRRKAYETSTKAHKERRSRRDQRAKERVGSRSEQHQRTGEGHKTEGDKEFQKSTSHRGVGDDKDKGSKRNRWHKGVSHVPITKESRSSHKLSRTISTASSASTSKRVGRISLFLRNIRASLAGKSLAPRGQDVGIMTKTLETTDVKAIMEAEDGQGLEIIDSVTSEVMETVTFEAH
As for B2, the binding result is “binds” in test [1]; “binds” with PA-tagged RAB2A; “binds” with PA-tagged RAB2B; “binds” in test [2]; “binds weakly” in test [3].

B3: FLAG-tagged GARIN2 (protein, UniProt D3YV92 1-440)
chain: MMKKNRNKKAMNKQEALFIPHYYRLGHLKNILDGGEYAPYVSPPILESNFIQVNRRGESIYLHNRANWVTVGICSSNPIFKTPNMMLLAHLTPEARKEPEPLFKTLLKSSSSGTLVLTRFIPLQFVTLSVHSAKNMRLKVKLINGRSYYLQLCAPVYKQDIIFSQWVDLIPLLNQEKIKNTKVSEVSSLSELTNSTDIAGSMDITDITAFRELRPRHPKTHRYPCNIMESADFSEYTDVTDVTDVTDVTDMLDNGITDVQDIKIVTEVTEVTEVTEVTEVSEVSDVKMATNISGVKIVFENDDIIKTKQEEKEYTLKHRSLQDTKTKSDYQDSPNPVTMSNIALALQDEGCFQTTQTPVKSKEDIYKEICDETSEENMIRLQNIHLKATESRSTRTDSDISDGELKLGRYLHKQCSSREQSFIHSLGSLPRGFVFLHLLL
On to B3, for which the binding result in test [1] is “binds”; with PA-tagged RAB2A it was “binds”; with PA-tagged RAB2B, “binds”; in test [2], “binds”; in test [3], “binds weakly”.

B4: GARIN1B (protein, UniProt Q3UZD7 1-341)
chain: MMTSVPPRKSWWTSKKTVKVIRSYPTFPSLNAWEKFRGLLPVDGETNPGVGLGVEEGLLCQMVHSPEFNLFPNSVVFESNFVQVRRSRNWKEIYKASNTMALGVTSSVPCLPLPNILLMARVKWHQGQSQTWNRPSRAPSINLKSILPLKFVELQIWDDQERVLRLRTVTEKIYYLKLHPDHPETVFHFWIRLVQILHKGLSITTKDPTILVTHCLVPKSLCSPGGKTELVQKKSKGLQPSESLTHLMAQGESETLSQIFSDLHQQKQYRSEKMHINKTSSEKATPCEDSIPCTCDLNWRDAFMFGEWERENPSGPQPLSLLGTLAASSRPRLSLTGGNSI
As for B4, the binding result in test [1] is on record as “binds”; in test [4], “no binding”; in test [2], “binds”; in test [3], “no binding”.

B5: FLAG-tagged GARIN3 (protein, UniProt Q5STT6 1-665)
chain: MPGMKRTMSSECLLPYYTAHSYRSMGVFNTSMGNLQRQLYKGGEYDIFKYAPMFESDFIQISKRGEVIDVHNRVRMVTVCIASTSPVLPLPDVMLLARPAKVCEEHARRARFIKGKGCKPSKTLELTRLLPLKFVKISVHDHEKQQLRLKLATGRTFYLQLCPSSDAREDLFCYWEKLVYLLRPPMTNCISNSTLPTGETSVDTKSTLVSEIRGEGDQNSRPQSSPTVSEATSAAFAGGERTQPAAAAAVTPVSAKARAAGTAGAAAGTAGAAAGTAGPAAGPAAGTAGPAAGTAGAAAGTAGAAAGTAGATAGTAGATAGMAGATAGTAAETAGTAAETAGAARAAGGPMAAAVAAPSAGMTKAETATSPTSGVISLAATTTKPPGSGQVAAAMIGSAAKDQVGGESSKAMALAANITLENVDVALAGAANSISESPPAGGDASGSPDTGLNVAFAGSIKTKSPAEDKPEAPLVSTLQSEGYMCERDGSQKVSQTSSEAKEKRERREKDRTSSRKSSHHRRTGMSRHSSKDKSRKTSSYRSVSGKTREDKGKGHGRLRGKRHSSSHKSESRTGHKTRKNRSPAGLGSVSKRATKITSFFRSFLVRPTPKAGDTSCDRGGVDIVTKLVEKKQDIEAVMEKSKDSEFKDTVISETMEKIILETKSI
For the molecule B5, the binding entry (in test [1]; with PA-tagged RAB2A; in test [4]; in the test with PA-tagged RAB2B; in test [2]; in test [3]) was “binds” each time.

For the origin of these results see paper PMC11236154.
